# Measurements as given in PubChem BioAssay AID1347417 (National Center for Advancing Translational Sciences (NCATS), 2020).
# Among all 120,000 compounds or so, about 5,300 (4.4%) were called active. The inconclusive results got no clear call from the source; some entries with a clear call stand among them for comparison. The call rests on the fitted dose curve; in most records, active means well fitted inhibition curve with a large enough effect; inconclusive means small, poorly fitted or top-dose-only effect; inactive means no such curve, though single readings can be large or run the other way. A potency beside an inconclusive call is a rough fit, not a confirmed value.
# Test: qHTS Primary assay for Inhibitors of Plasmodium falciparum Dd2 growth in vitro; further: nearly all actives have a fitted effect of over 65% in size;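 on activity, negative = inhibition: plate controls were DMSO vehicle for no effect and reference drug for full effect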
# Details: P. falciparum Dd2 growth, SYBR Green, 72 h; activity, negative = inhibition: at 28.9 µM (top of the series) unless noted; series mostly up to 28.9 µM
# Outline: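 Infected erythrocytes (Dd2, 0.3% parasitemia, 2.5% hematocrit final) are added to compound in RPMI-1640/Albumax II medium, grown 72 h at 37C in low oxygen, then lysed with saponin/Triton-X containing SYBR Green and read by fluorescence.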
# Potency means the concentration at half of the fitted maximal effect; tags describe the fitted curve by direction and shape.
SMILES,Potency,"activity, negative = inhibition"
O=C1CCN(C(=O)c2ccccc2)CCCC(C(=O)NCCCn2cccn2)CCN1 (stereo unspecified),inactive,–
CC1CCCCN1Cc1c(O)ccc2c(=O)c(-c3ccccc3Cl)c(C(F)(F)F)oc12 (stereo unspecified),active: 8.91 µM,–
CCCCn1c(CNC(=O)C23CC4CC(CC(C4)C2)C3)nnc1SCC(=O)Nc1ccc(C)cc1,"inconclusive: 10 µM [inhibitor, single point]",–
Cc1ccccc1-n1c(/C=C/c2ccc(N(C)C)cc2)nc2ccccc2c1=O,"inconclusive: 8.91 µM [inhibitor, single point]",–
CC(C)(C)C1CCc2c(sc(NC(=O)C3c4ccccc4Oc4ccccc43)c2C(N)=O)C1 (stereo unspecified),active: 12.6 µM,–
Cc1ccc(C(=O)N2CCC3(CC2)COc2ccccc2CN3)cc1,"inconclusive: 2.51 µM [inhibitor, partial curve, poor fit]",–
CCc1nc2c(=O)n(CC(=O)NCc3ccc(SC)cc3)nc(C)c2s1,inactive,–
COc1ccc(OC)c(CNC(=O)Nc2cn(CC(C)C)c(=O)c3ccccc23)c1,"inconclusive: 10 µM [inhibitor, single point]",–
CCc1ccc(CNC(=O)CCC2CCCN(S(=O)(=O)c3ccccc3C)C2)cc1 (stereo unspecified),"inconclusive: 12.6 µM [inhibitor, partial curve, poor fit]",–
Cc1ccc(CN(C(=O)COc2ccccc2Cl)c2ccccn2)o1,"inconclusive: 14.1 µM [inhibitor, single point]",–
CCOc1ccc(NC(=O)Cn2c(=O)n(Cc3ccc4c(c3)OCO4)c(=O)c3ccc(C(=O)NC4CCCCC4)cc32)cc1,"inconclusive: 2 µM [inhibitor, partial curve, poor fit]",–
COc1cc(NC(=O)C2CN(S(=O)(=O)C3CC3)CC23CCCCC3)cc(OC)c1 (stereo unspecified),"inconclusive: 0.0631 µM [inhibitor, full curve, poor fit]",–
N#Cc1ccc(S(=O)(=O)N2CCCC(CO)CCNC(=O)CC2)cc1 (stereo unspecified),inactive,–
Cc1ccc(-c2noc(CCC(=O)N(C)c3ccccc3F)n2)cc1,–,inconclusive: -73.2% [inhibitor] [at 5.79 µM]
CCOc1ccc(CCNC(=O)c2cc(=O)[nH]c3ccc(S(=O)(=O)N4CCCCC4C)cc23)cc1OCC (stereo unspecified),"inconclusive: 12.6 µM [inhibitor, single point]",–
O=C1C(N2CCN(S(=O)(=O)c3cc(F)ccc3F)CC2)CCN1Cc1cccnc1 (stereo unspecified),inactive,–
COc1ccc(CN2CCc3oc(C)c(C(=O)NCc4cccnc4)c3C2)cc1,active: 11.2 µM,–
CC(C)CCOc1ccc(Cn2c(=O)oc3ccccc32)cc1,inactive,–
CCn1cc(C(CC(=O)N2CCC(C)CC2)c2cccc(Cl)c2)c2ccccc21 (stereo unspecified),"inconclusive: 3.16 µM [inhibitor, single point]",–
O=C(NCc1ccco1)c1ccc(Cn2c(SCc3ccccc3)nc3cccnc32)cc1,inactive,–
COc1cc(OC)c(NC(=O)CCS(=O)(=O)c2ccc3c(c2)oc(=O)n3C)cc1Cl,"inconclusive: 15.8 µM [inhibitor, single point]",–

SMILES,Potency,"activity, negative = inhibition"
O=C(CCC1CCCC1)N1CCCC(c2noc(COc3ccccc3)n2)C1 (stereo unspecified),"inconclusive: 7.94 µM [inhibitor, partial curve, poor fit]",–
COCC(=O)N1CCCC(C(=O)NCc2nncn2C2CCCCC2)C1 (stereo unspecified),inactive,–
COc1ccc(NC(=O)c2cc3c(N(C)Cc4ccccc4)nc(C)cn3n2)cc1,"inconclusive: 10 µM [inhibitor, single point]",–
C[C@]1(CO)[C@H]2Cc3sc(NC(=O)c4cccs4)nc3[C@@H](CC(=O)NCc3cccnc3)[C@]2(C)CC[C@H]1O,inactive,–
COc1ccc(NCc2cccn2-c2nnc(N3CCCCCC3)s2)cc1,"inconclusive: 17.8 µM [inhibitor, single point]",–
O=C(NCc1ccccc1)N1CCC(N2CC(OCC3CC3)C23CCOCC3)CC1 (stereo unspecified),inactive,–
O=C1CCN(S(=O)(=O)c2ccccc2)CCCC(C(=O)NCCCN2CCOCC2)CCN1 (stereo unspecified),"inconclusive: 2.82 µM [inhibitor, partial curve, poor fit]",–
COc1cccc(CN2C[C@@H](CO)[C@H](c3nc(C)no3)C2)c1OC,inactive,–
CC(C)(C)C1CCc2c(sc(NC(=O)c3cccc(Cl)c3)c2C(=O)NCc2ccco2)C1 (stereo unspecified),"inconclusive: 10 µM [inhibitor, single point]",–
CC(=O)c1ccc(NC(=O)C2CCN(c3nnc(C)c4c(C)n(-c5ccccc5)nc34)CC2)cc1,"inconclusive: 10 µM [inhibitor, single point]",–
Cc1ccc(-c2cc(C(=O)N3CCN(S(=O)(=O)c4ccc(Br)cc4)CC3)[nH]n2)c(C)c1,"inconclusive: 10 µM [inhibitor, single point]",–
O=C(Nc1cccc(F)c1)N1C[C@@H]2C[C@H](C1)c1c(-c3ccc(Cl)cc3)ccc(=O)n1C2,inactive,–
CCC1=C(C(=O)OC)C(c2ccccc2Cl)N2C(CC(=O)NCC3CCCO3)=CSC2=N1 (stereo unspecified),"inconclusive: 2.51 µM [inhibitor, full curve]",–
Cc1ccc2c(C(=O)N3CCN(c4ccccc4)CC3)cc(NC(=O)C(C)C)cc2n1,"inconclusive: 14.1 µM [inhibitor, single point]",–
c1cncc(-c2ccnc3nc(CCC4CCCC4)nn23)c1,"inconclusive: 3.16 µM [inhibitor, full curve, poor fit]",–
CCc1ccc(S(=O)(=O)NCc2ccc3c(c2)CCN3C(=O)c2ccc(C)cc2)cc1,"inconclusive: 10 µM [inhibitor, single point]",–
CC(C)CCNC(=O)Cn1c(-c2cccs2)cc2cc(F)ccc21,active: 4.47 µM,–
O=C(NC1CC1)c1ccccc1OCC1CCCN(C(=O)C2CCCC2)C1 (stereo unspecified),"inconclusive: 20 µM [inhibitor, single point]",–
Cn1ccc(Nc2cc3c(cn2)CN(CCc2ccccc2)CCN3)n1,"inconclusive: 8.91 µM [inhibitor, partial curve, poor fit]",–
O=C(CCCCCn1c(=O)c2sccc2n(Cc2ccc(Cl)cc2)c1=O)NCc1ccc2c(c1)OCO2,"inconclusive: 11.2 µM [inhibitor, single point]",–
